Experimental data: the BET-seq Pho4 binding data (Le et al. 2018)
The other results are listed elsewhere or left out. Values were computed here from the reads of four pooled replicates and scatter widely.

biological target: T1, Pho4 (S. cerevisiae) (UniProt P07270); test: relative binding free energy (BET-seq); higher = weaker binding; settings: reference: library average
T1 sequence: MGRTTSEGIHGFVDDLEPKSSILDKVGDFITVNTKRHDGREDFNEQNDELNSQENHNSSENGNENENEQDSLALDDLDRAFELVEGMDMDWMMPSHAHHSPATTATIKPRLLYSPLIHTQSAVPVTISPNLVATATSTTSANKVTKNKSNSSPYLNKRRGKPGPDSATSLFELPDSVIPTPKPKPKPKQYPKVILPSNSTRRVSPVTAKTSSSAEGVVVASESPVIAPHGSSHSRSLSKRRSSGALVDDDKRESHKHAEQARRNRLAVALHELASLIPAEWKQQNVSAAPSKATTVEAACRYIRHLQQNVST

Sequence	relative binding free energy [kcal/mol]
TAATACACGTGTGAGT	0.16
ATTTTCACGTGAGGCA	0.34
GCTAGCACGTGAGGTG	-0.01
TTACTCACGTGGGGTG	-0.04
TTGGCCACGTGGGTGA	-0.23
TAAAACACGTGAAGTG	0.33
CCTGACACGTGTGTGT	0.03
TGAGGCACGTGGAGGA	-0.12
TGATTCACGTGGTAAT	0.26
GCGGGCACGTGAGATG	0.17
GCTTTCACGTGGGTTT	0.35
TTCTTCACGTGGGGCG	0.12
GGCAACACGTGGGTGA	-0.14
GGATACACGTGTTTAT	-0.11
GCATACACGTGGAGGG	0.03
GTGAGCACGTGAAGGC	0.29
TTTGTCACGTGCTTTG	0.09
TGCTGCACGTGGGTCA	-0.2
CGTTCCACGTGGTGGG	-0.17
TTGGTCACGTGTTTAG	0.17
TATGTCACGTGACAGG	0.2
AGGCACACGTGGTTTT	-0.04
ACATGCACGTGGGCGT	-0.1

Sequence	relative binding free energy [kcal/mol]
TATGGCACGTGTTCGT	-0.09
TTCTTCACGTGTGCTT	0.31
ATGATCACGTGTTTCT	0.18
CATGGCACGTGGTGGG	-0.15
GAGGGCACGTGGGACG	-0.18
GCGTACACGTGGTTAT	0.06
GTTTTCACGTGACTAG	0.38
GTGGTCACGTGAAGGT	0.37
ACTTGCACGTGTAGTA	0.05
AGTTGCACGTGTTCAA	0.16
ATATGCACGTGAGGAT	0.2
ATTTTCACGTGGATCG	0.31
ATGGTCACGTGGGCCG	-0.08
GAATTCACGTGGAATG	0.32
TCTATCACGTGGGCTG	0.07
CGGCTCACGTGGGGTA	0.06
TGAAGCACGTGGAAGA	0.12
TGGATCACGTGTTTTG	0.18
TAGTGCACGTGCAAGG	0.06
TCTGGCACGTGAGATT	0.18
TTGGCCACGTGATATT	0.15
CGAGTCACGTGTAGTT	0.07
ACTATCACGTGGTGTA	0.06

Sequence	relative binding free energy [kcal/mol]
TAGGGCACGTGTGCGC	-0.23
TTTAGCACGTGGATCT	-0.05
TTTTACACGTGGTCGA	0.1
TAGCTCACGTGCTGTG	0.25
CTAAACACGTGTGTGG	-0.01
TACATCACGTGTGTGT	0.15
GTGTACACGTGAGCGG	0.23
TGGTTCACGTGGGCTT	0.19
TGTGCCACGTGGAATG	0
GCTTACACGTGGTAGG	0.05
ATAATCACGTGTTGAT	0.19
GTTGGCACGTGCCATG	-0.1
TGAAACACGTGGGTCT	-0.17
CGGACCACGTGTGGTG	0.02
ATAGTCACGTGGTGTG	-0.02
GTGGACACGTGAGTTG	0.28
TATGGCACGTGCGCTG	-0.11
ATGTACACGTGTTTAG	0.03
GGAGCCACGTGGGGCG	-0.18
TTAAGCACGTGGGCGG	-0.21
GAGGTCACGTGTGAAT	0.32
AGGAACACGTGAGGGT	0.14
TCGGTCACGTGGCTGT	-0.01

Sequence	relative binding free energy [kcal/mol]
TTGTTCACGTGGCTAG	0.26
GGGGCCACGTGGAAGA	0.11
AGGGTCACGTGCTCTG	0.03
TAGGGCACGTGGTAAA	-0.05
TGCTGCACGTGTCAGG	0.02
CGCAGCACGTGAGGTG	0.3
TTGAGCACGTGTGGTC	0.03
GGGTGCACGTGTGTAC	0
TGTGGCACGTGGGAGG	-0.18
GTACGCACGTGAGTTT	0.15
GGTATCACGTGGAGTC	0.14
TAAGACACGTGTCGGT	-0.02
ATGAACACGTGGTTTG	-0.09
ATCGGCACGTGGGATA	-0.2
ATGTTCACGTGTGTGC	0.27
AAATTCACGTGAGGGT	0.36
TGAGGCACGTGTCTGG	-0.04
GCGTTCACGTGAGGCG	0.48
TAAGGCACGTGGACGG	-0.09
TTAGCCACGTGTCGGT	0.12
GGAATCACGTGGCTTT	0.13
CTAGTCACGTGGTTCG	0.2
ACCTTCACGTGTTGTG	0.23

Sequence	relative binding free energy [kcal/mol]
AGTGGCACGTGTAGAC	0.11
ATTACCACGTGGTTAG	0.05
ATAGGCACGTGGTGGT	-0.11
AATATCACGTGTAATG	0.21
CTTTGCACGTGGTTTT	-0.05
AGGGTCACGTGTGGTC	0.19
AAGTGCACGTGTTTTT	-0.01
AGTGGCACGTGTAATT	0.1
GTGATCACGTGGGTCA	-0.22
GTGGTCACGTGGGGAC	0.09
CGTGCCACGTGTAGGT	-0.22
GCGTTCACGTGTTAAT	0.3
TGGTGCACGTGTTGTC	0.01
ACGATCACGTGGTTGG	0
TTTGTCACGTGTGGCG	0.2
GGATTCACGTGGGTTT	0.23
TTTTTCACGTGGAGAC	0.21
GCTCGCACGTGTGTTT	-0.07
TAGAGCACGTGTGCTG	-0.11
TCGCTCACGTGTTTGG	0.19
ATAGTCACGTGTGTCT	-0.04
TGAAGCACGTGTTTTA	-0.1
TTGTTCACGTGTAAAC	0.32
